For 91 molecules, survival results are on record in PubChem BioAssay AID463173 (ICCB-Longwood Screening Facility, Harvard Medical School, 2010).

Each structure is given as a SMILES string. Screen size: about 52,000 compounds; about 4,300 (8.3%) were called active. Cut-off read from the data, not from the text of the source: active = survival mostly below about 52% (no sharp cut-off); inactive = mostly above about 56%. The list shows a part of the results.

This experiment deals with DeltatarO mutant. The experiment can be described thus: growth inhibition of S. aureus wild type versus tarO mutant, primary screen, teichoic acid synthesis inhibitors, RN4220, OD600 (AID 463173). The note with it: OD600, 18 h, hits give low values, screened at 18.75 µg/mL (by protocol).
Turning to `O=C(c1nc(-c2ccc(Cl)cc2)n2c1CCCCC2)N1CCN(c2ccc(F)cc2)CC1`, the survival was inactive: 94%.

Regarding `CCN(Cc1ccccc1)C(=O)C1CCN(Cc2cc(Br)c(O)c(OC)c2)CC1`, the survival is inactive: 105%.

As to `N#CC1=C(N)OC2=C(C(=O)CCC2)C1c1ccccc1C(F)(F)F` (stereo unspecified), the survival is inactive: 78%.

As to `O=C(O)c1ccc(N2CCOCC2)cc1`, the survival is inactive: 80%.

With `CCOc1ccc(CCNC(=O)CSc2cc(=O)n(C)c3ccccc23)cc1OCC`, the survival is inactive: 132%.

Turning to `O=C(NCC1(c2ccccc2)CCCC1)C(=O)Nc1cccc(C(F)(F)F)c1`, the survival was inactive: 101%.

As for `COc1ccc2nc(NS(=O)(=O)c3ccc(C)cc3)c(Nc3cc(Cl)ccc3OC)nc2c1`, the survival was active: 22%.

Take `CC1CCCc2c1nc(N)c(C#N)c2-c1ccccc1` (stereo unspecified): the survival was inactive: 105%.

Turning to `CCOc1ccc(CC(=O)NCCc2csc3nc(-c4ccccc4F)nn23)cc1`, the survival is inactive: 91%.

Consider `Cc1noc(/C=C/N(C)C)c1S(=O)(=O)N1CCCC(C(=O)Nc2cccc(F)c2)C1` (stereo unspecified), for which the survival was inactive: 90%.

For `CCS(=O)(=O)Cc1cccs1`, the survival is inactive: 86%.

Turning to `O=C1CC(c2ccccc2)Cc2[nH]c(=O)c(-c3nc(-c4cccc(Cl)c4)cs3)cc21` (stereo unspecified), the survival is inactive: 95%.

For the molecule `O=C(CSc1nnc(CNc2ccccc2)o1)N1CCc2ccccc21`, the survival was inactive: 98%.

Regarding `Cc1ccc(Cl)cc1N1CCN(C(c2ccc(F)cc2)c2nnc(-c3ccccc3)o2)CC1` (stereo unspecified), the survival is inactive: 55%.

With `N#Cc1cc2cc(Br)ccc2oc1=O`, the survival was inactive: 97%.

For the molecule `COc1ccc(-c2cc(C(=O)N3CCN(c4ccccc4OC)CC3)c3cc(C(C)C)ccc3n2)cc1`, the survival is inactive: 82%.

`COC(=O)c1sccc1S(=O)(=O)N1CCN(c2cccc(C)c2C)CC1`: the survival is inactive: 89%.

With `O=C(CSc1n[nH]c(-c2ccccc2)n1)N1CCCCC1`, the survival is inactive: 83%.

As for `CCC(=O)N1CCc2cc(S(=O)(=O)CCC(=O)N3CCN(c4cccc(C)c4)C(C)C3)ccc21` (stereo unspecified), the survival was inactive: 76%.

Consider `CCN(Cc1ccc(OC)cc1)c1ccc(-c2nc(-c3ccncc3)no2)cc1[N+](=O)[O-]`, for which the survival is active: 41%.

For `Nc1cc(C(=O)c2ccccc2)ccc1N1CCOCC1`, the survival was inactive: 110%.

Take `O=C(NCCc1ccccc1)c1ccc(Cn2c(SCc3ccc(F)cc3)nc3cccnc32)cc1`: the survival was inactive: 95%.

In the case of `Cc1ccccc1Nc1c(-c2ccsc2)nc2c(C)cccn12`, the survival was active: 8%.

For the molecule `O=C(NCc1cccc(Cl)c1)c1cccn1-c1nnc(N2CCCC2)s1`, the survival was active: 37%.

On to `Cc1cc(C)c(Cn2c3ccccc3c3cnn(CC(=O)NCCCc4ccccc4)c(=O)c32)c(C)c1`, for which the survival is inactive: 119%.

`CC1CCN(C(=O)COc2ccc(C(C)C)cc2)CC1`: the survival is inactive: 86%.

As for `COc1ccc(OC)c(S(=O)(=O)N2Cc3ccccc3CC2C(=O)Nc2ccc(C(C)=O)cc2)c1` (stereo unspecified), the survival is inactive: 63%.

Consider `Cc1ccc(CNC(=O)c2nc(SCc3cccc(C)c3)ncc2Cl)cc1`, for which the survival was inactive: 117%.

Consider `Cc1ccc(CNC(=O)c2cn(C)c3ccc(S(=O)(=O)N(C)C4CCCCC4)cc3c2=O)cc1`, for which the survival is inactive: 80%.

Consider `CCc1ccc(-n2nc3ccc(NC(=O)c4cc5ccccc5o4)cc3n2)cc1`, for which the survival was inactive: 65%.

For the molecule `O=C(CC(c1ccccc1)c1ccccc1)NCc1ccco1`, the survival was inactive: 92%.

Turning to `CCOc1ccc(-c2cc3c(=O)n(Cc4nc(-c5cccc(OC)c5OC)oc4C)ccn3n2)cc1Cl`, the survival was inactive: 187%.

For the molecule `O=C(c1ccccc1)N1CCc2cc(CNS(=O)(=O)c3ccccc3Cl)ccc21`, the survival was inactive: 78%.

Turning to `COc1ccc(-c2ccc(C#N)c(SCc3ccccn3)n2)cc1`, the survival was inactive: 71%.

As for `Cc1ccc(-c2nn3c(C)nnc3c3ccccc23)cc1S(=O)(=O)NCCO`, the survival is inactive: 66%.

Turning to `Cc1cccc(N(CC(=O)NC(C)c2ccccc2)S(=O)(=O)c2ccccc2)c1C` (stereo unspecified), the survival was inactive: 65%.

Turning to `CCOc1cc(C(=O)OCc2cc(=O)n3c(C)csc3n2)cc(OCC)c1OCC`, the survival is active: -1%.

Regarding `CC(=O)Nc1ccc(S(=O)(=O)NCC2CCC(C(=O)NCCCOC(C)C)CC2)cc1` (stereo unspecified), the survival was inactive: 87%.

As to `CCCCN(c1ccccc1)c1ncnc2c1cnn2-c1ccc(Cl)cc1`, the survival was inactive: 87%.

Consider `Cc1ccccc1NC(=O)Cn1c(=O)n(Cc2ccc3c(c2)OCO3)c(=O)c2oc3ccccc3c21`, for which the survival was inactive: 61%.

Regarding `Cc1cc(C)cc(C(=O)Nc2cc(C(F)(F)F)ccc2N2CCN(c3ccccc3)CC2)c1`, the survival was inactive: 76%.

In the case of `Cc1ccc(-c2cn3cccc(C)c3n2)cc1NS(=O)(=O)c1ccccc1`, the survival was active: 41%.

Regarding `O=C(CCC(=O)N1CCOc2ccccc21)NCc1cccs1`, the survival is inactive: 70%.

Take `Cc1ccc2[nH]c3c(=O)n(CC(=O)N4CCN(c5ccccc5F)CC4)ncc3c2c1`: the survival is inactive: 79%.

Regarding `CCN(c1ccccc1)c1ncnc2c1cnn2-c1ccc(OC)cc1`, the survival is active: 52%.

`CC(=O)N1CCCc2cc(S(=O)(=O)N3CCCC(C(=O)Nc4ccc(F)cc4F)C3)ccc21` (stereo unspecified): the survival is inactive: 74%.

As to `Cc1cc(N2CCN(C)CC2)nc2ccc(NC(=O)Nc3ccc(F)cc3)cc12`, the survival was inactive: 95%.

As to `COc1ccc(Cn2c(CNC(=O)Cc3ccc(OC)c(OC)c3)nc3cccnc32)cc1`, the survival is inactive: 82%.

`Brc1ccc(-c2cn3cc(Cc4ccccc4)sc3n2)cc1`: the survival is inactive: 64%.

For `CC1CCN(S(=O)(=O)c2ccc3[nH]ccc3c2)CC1`, the survival was inactive: 80%.

In the case of `CCOC(=O)c1ccc(NC(=O)c2noc3c2CCCC3)cc1`, the survival was active: 0%.

Regarding `Cn1cc(CCCC(=O)NCc2ccc(F)cc2)c2ccccc21`, the survival was inactive: 81%.

Turning to `O=C1NC(NS(=O)(=O)c2ccccc2)(C(F)(F)F)C(=O)N1CCc1ccccc1` (stereo unspecified), the survival is inactive: 78%.

On to `CCOc1ccc(-c2cc3nc(C4CCN(C(=O)OC(C)(C)C)CC4)c(C(=O)Nc4cccc(Cl)c4C)cn3n2)cc1`, for which the survival was inactive: 81%.

In the case of `CCOC(=O)CCc1c(C)c2cc3c(c(C)c2oc1=O)OCN(CCc1ccccc1OC)C3`, the survival was inactive: 49%.

Take `CCOc1ccc(CCNC(=O)c2ccc3nc(N4CCC(C)CC4)sc3c2)cc1OCC`: the survival was inactive: 61%.

`CSc1ncc(Cl)c(C(=O)Nc2c(C(=O)c3ccc(C)cc3)oc3ccccc23)n1`: the survival is inactive: 76%.

On to `CCC(C)n1c(=O)c2sccc2n2c(CCCC(=O)Nc3ccc(F)cc3)nnc12` (stereo unspecified), for which the survival is inactive: 79%.

For the molecule `O=C(Cn1c(=O)n(Cc2ccco2)c(=O)c2sc3ccccc3c21)Nc1ccc(F)cc1F`, the survival was inactive: 100%.

For `COc1ccc(C(=O)N(Cc2ccco2)Cc2ccccc2F)cc1Cl`, the survival is inactive: 98%.

With `O=C1CCC(C(=O)Nc2ccccc2)N1` (stereo unspecified), the survival is inactive: 63%.

Turning to `COc1ccc(-c2cc(C(F)(F)F)c(C#N)c(SCC(=O)Nc3cccc(C)c3)n2)cc1`, the survival is inactive: 59%.

Take `O=C(NCC(c1ccco1)S(=O)(=O)c1ccc(Cl)cc1)c1ccc(C(F)(F)F)cc1` (stereo unspecified): the survival is active: 17%.

On to `Cc1ccc(Cn2c(SCc3ccc(C(=O)O)cc3)nc3cccnc32)cc1`, for which the survival is inactive: 96%.

On to `O=C1CCCC(O)=C1C=Nc1cccc(C(F)(F)F)c1`, for which the survival is inactive: 74%.

For the molecule `COc1cccc(CC(=O)Nc2c(C(=O)N3CCN(c4ccccc4)CC3)oc3ccccc23)c1`, the survival was inactive: 73%.

Take `CC1CCCCN1CC(=O)N1CCN(C(=O)CN2CCCCC2C)CC1` (stereo unspecified): the survival is inactive: 82%.

For `COc1ccc(Cn2c(CCC(=O)Nc3cc(C)cc(C)c3)nc3cccnc32)cc1`, the survival was inactive: 79%.

With `Cc1ccc2c(CN3CCN(c4ccc(Cl)cc4)CC3)cc(=O)oc2c1`, the survival was inactive: 76%.

Take `Cc1ccc(CNC(=O)CCCCCn2c(=O)c3sccc3n(CC(=O)C(C)(C)C)c2=O)cc1`: the survival is inactive: 59%.

As for `Cc1ccccc1-n1c(SCC(=O)c2ccccc2)nnc1-c1ccc(F)cc1`, the survival is inactive: 107%.

Turning to `Cc1ccc(NC(=O)NC(C)c2c(-n3cccc3)sc(C)c2C)c(C)c1` (stereo unspecified), the survival was inactive: 93%.

Turning to `Cc1ccc(SCC(=O)Nc2ccc(O)c(-c3nc4cc(C)ccc4o3)c2)cc1`, the survival is inactive: 64%.

Consider `COc1cc(OC)cc(C(=O)Nc2cc(NC(=O)c3ccco3)ccc2OC)c1`, for which the survival was inactive: 83%.

As for `COc1ccc(NC(=O)c2ccco2)cc1NC(=O)c1cccc(C)c1OC`, the survival is active: 37%.

`CCC(c1nnnn1CCc1ccccc1)N(Cc1ccco1)Cc1cc2cc(C)ccc2[nH]c1=O` (stereo unspecified): the survival is inactive: 62%.

As for `COc1ccc(Nc2ncc(C(=O)Nc3cccc(OC)c3)c3ccccc23)cc1`, the survival is inactive: 106%.

With `Cc1ccc(Cl)cc1N(C)C(=O)c1sc2nc3n(c(=O)c2c1C)CCCC3`, the survival is inactive: 62%.

Take `O=C1NC(c2ccco2)Nc2ccccc21` (stereo unspecified): the survival is inactive: 85%.

In the case of `CCOc1cc(CNC(=O)CSc2n[nH]c(-c3ccccc3)n2)cc(OCC)c1OCC`, the survival was inactive: 119%.

Take `Cc1ccc(NC(=O)CSc2nc(=O)n(Cc3ccncc3)c3c2CCC3)cc1Cl`: the survival is inactive: 80%.

Consider `COc1ccccc1N1CCN(S(=O)(=O)c2ccc(-c3coc(C)n3)cc2)CC1`, for which the survival was inactive: 71%.

Take `Cc1ccc(Cn2c(C3CC3)nc3ccc(N)cc3c2=O)cc1`: the survival is inactive: 100%.

As to `CCc1ccccc1NC(=O)CSc1nc2ccccc2n1CC(=O)N(C)C`, the survival is inactive: 96%.

On to `Cc1c2cnn(-c3ccccc3)c(=O)c2c(C)n1CC(=O)Nc1ccccc1Br`, for which the survival was inactive: 87%.

`c1ccc2[nH]c(CN3CCCCC3)nc2c1`: the survival was inactive: 59%.

`Cc1ccc(N2CCN(C(=O)c3cn(C)c4ccc(S(=O)(=O)N5CCC(C)CC5)cc4c3=O)CC2C)cc1` (stereo unspecified): the survival is inactive: 105%.

In the case of `O=C(C1CCCCC1)N(Cc1cccnc1)c1nc2ccc(Cl)cc2s1`, the survival was inactive: 84%.

In the case of `CCN(C(=O)CSc1nc(-c2ccc(C(C)C)cc2)no1)c1ccccc1`, the survival is inactive: 84%.

Take `O=C(Nc1nnc(S(=O)(=O)N2CCCc3ccccc32)s1)c1ccc(Cl)cc1`: the survival was active: 15%.

Regarding `COc1ccc(NC(=O)Cn2c(=O)n(Cc3ccco3)c(=O)c3sc4ccccc4c32)cc1OC`, the survival is inactive: 79%.
